The record followed here is article PMC4336329 (PLoS ONE, 2015).

Hit rate of the full screen: of about 310,000 compounds, about 14,000 (4.5%) showed an effect of 50% or more. The effect is printed as a negative number. Some of the results follow. Where a SMILES comes first, the peptide text is derived from it. [ ]: non-standard residue; d: D form. ξ: configuration not given here. ξV = CC(C)C(N)C(=O)O
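Note: peak tail current of the secondary pulse compared with the same well before compound.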

Sequence of human ether-à-go-go-related gene (hERG) potassium channel (Q12809 whole entry, looked up): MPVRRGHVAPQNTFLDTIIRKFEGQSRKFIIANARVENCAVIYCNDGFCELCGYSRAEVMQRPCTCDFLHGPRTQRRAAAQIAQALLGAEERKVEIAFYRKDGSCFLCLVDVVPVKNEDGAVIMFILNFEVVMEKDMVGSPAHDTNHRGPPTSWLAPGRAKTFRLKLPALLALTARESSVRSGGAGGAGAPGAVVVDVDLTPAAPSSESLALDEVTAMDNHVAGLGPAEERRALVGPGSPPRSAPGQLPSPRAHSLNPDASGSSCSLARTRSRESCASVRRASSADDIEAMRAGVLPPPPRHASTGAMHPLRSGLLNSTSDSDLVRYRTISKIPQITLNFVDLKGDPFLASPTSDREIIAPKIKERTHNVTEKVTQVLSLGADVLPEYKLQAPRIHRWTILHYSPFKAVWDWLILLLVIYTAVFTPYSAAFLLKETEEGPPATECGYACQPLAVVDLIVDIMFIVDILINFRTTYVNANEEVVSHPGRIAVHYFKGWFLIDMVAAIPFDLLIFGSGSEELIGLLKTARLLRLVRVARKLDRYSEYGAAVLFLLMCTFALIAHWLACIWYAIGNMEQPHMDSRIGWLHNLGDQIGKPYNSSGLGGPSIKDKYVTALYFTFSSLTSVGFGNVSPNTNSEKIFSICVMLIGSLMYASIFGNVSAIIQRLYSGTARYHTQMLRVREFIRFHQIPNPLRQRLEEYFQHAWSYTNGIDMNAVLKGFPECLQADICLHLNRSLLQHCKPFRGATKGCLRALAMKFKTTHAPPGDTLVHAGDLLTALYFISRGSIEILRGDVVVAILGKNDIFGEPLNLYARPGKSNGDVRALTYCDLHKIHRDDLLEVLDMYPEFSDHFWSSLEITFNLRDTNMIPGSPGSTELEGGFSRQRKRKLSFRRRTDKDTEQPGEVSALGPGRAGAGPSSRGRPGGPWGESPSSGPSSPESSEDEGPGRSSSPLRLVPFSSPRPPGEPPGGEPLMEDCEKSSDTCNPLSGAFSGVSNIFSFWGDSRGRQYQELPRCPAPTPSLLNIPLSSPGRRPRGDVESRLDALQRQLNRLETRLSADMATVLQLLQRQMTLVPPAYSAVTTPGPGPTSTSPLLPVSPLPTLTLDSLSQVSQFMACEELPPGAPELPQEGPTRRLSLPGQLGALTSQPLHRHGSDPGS

This assay concerns the target human ether-à-go-go-related gene (hERG) potassium channel (human, UniProt Q12809). Kind of assay: primary screen, population patch clamp on CHO cells stably expressing hERG.
For `Cn1c(N2CCOCC2)nc2c1c(=O)n(Cc1ccc(Cl)cc1)c(=O)n2C`, the “hERG current change (%, negative = inhibition) at 10uM” value is -54.5%. Next, `COC(=O)c1c(C)[nH]c(C(=O)NCCc2ccc(S(N)(=O)=O)cc2)c1C`: 24.2%; `COc1ccccc1C1CCN(C(=O)c2cccs2)CC1`: 2.47%; `Cc1ccc2nc(-c3ccccc3Cl)cc(C(=O)Nc3cc(C)on3)c2c1`: -9.62%.

For the molecule `CCN=C1S/C(=C\c2cn(CC)c3ccccc23)C(=O)N1CC`, the “hERG current change (%, negative = inhibition) at 10uM” value stood at 3.71%. For `CSc1nncn1/N=C/c1ccccc1F` the value was -7.49%; for `O=C(NCc1ccccc1)c1ccc(NC(=O)C2CCCO2)cc1` (stereo not shown), -6.37%.

Turning to `Cc1ccc(NC(=O)NCc2ccc3c(c2)OCO3)cc1`, the “hERG current change (%, negative = inhibition) at 10uM” value was 5.69%. Next, `C/C=C(\C)C(=O)NCCN1C2=NC[C@H](Cc3ccc(O)cc3)N2C[C@H]1Cc1ccc(O)cc1`: 16.5%; `O=C(CCC(=O)c1cccs1)NCc1cccc(C(F)(F)F)c1`: -7.88%. Next, `CC(=O)NC(C(=O)NCC(N)=O)C(C)C` (stereo not shown) (Ac-[ξV]-Gly-NH2): 1.56%; `CCc1c(C)nc2cc(C)[nH]n2c1=O`: 9.73%; `Cc1nn(C)c(C)c1NC(=O)c1ccc(S(=O)(=O)N(C)C)cc1`: 10.3%.

In the case of `COc1ccc(CNC(N)=O)cc1`, the “hERG current change (%, negative = inhibition) at 10uM” value is given as -0.197%. Regarding `CCOC(=O)c1cc(C)nc(Sc2ccc(C)cc2)c1C#N`, the “hERG current change (%, negative = inhibition) at 10uM” value worked out at 5.36%. Regarding `COc1ccccc1N(C)S(=O)(=O)c1ccc(Cl)c(C(=O)N2CCC2)c1`, the “hERG current change (%, negative = inhibition) at 10uM” value is given as -6.47%. Next, `C=CCOC(=O)C1=C[C@@H](c2cn(C(C)=O)c3ccccc23)C[C@@H](OCc2ccc(CO)cc2)O1`: -93.5%; `CCOc1ccccc1N1CCN(C(=S)NCc2ccc(Cl)cc2)CC1`: 21%. Next, `COc1ccc(S(=O)(=O)Nc2ccc(-c3ccc(N4CCCC4)nn3)cc2)cc1C`: 5.46%. Next, `O=c1[nH]c(SCc2cccc(Cl)c2)nc2c1CCCC2`: 0.225%.

`COc1ccccc1-c1cc(C(=O)NCCCn2ccnc2)no1`: the “hERG current change (%, negative = inhibition) at 10uM” value is reported as -14.2%.

For the molecule `CCS(=O)(=O)C1=NN2C(=N)/C(=C\c3ccc(OS(=O)(=O)c4ccccc4)c(OC)c3)C(=O)N=C2S1`, the “hERG current change (%, negative = inhibition) at 10uM” value was 24%. Next, `COCCNC(=O)Nc1ccc2c(c1)N(C)C(=O)c1ccccc1S2`: -0.368%. For `Cc1ccc(C)c(C(=O)Nc2ccncc2)c1` the value was 20.5%; for `COc1ccc(-c2cc(C(=O)N3CCCCCC3)c3cc(C)ccc3n2)cc1`, 23.1%.

For the molecule `COc1ccc(S(=O)(=O)Nc2nc3ccccc3nc2Nc2ccc3c(c2)OCO3)cc1`, the “hERG current change (%, negative = inhibition) at 10uM” value is listed as 0.543%. Consider `CCC1CCCCN1S(=O)(=O)Cc1ccccc1Cl` (stereo not shown), for which the “hERG current change (%, negative = inhibition) at 10uM” value was determined as 6.5%. Next, `Oc1ccc(C=Nc2cccc3ncccc23)c(O)c1`: 0.892%; `CC1(N2CCCCC2)CC2(O)C(=[N+]1[O-])CCC/C2=N\O` (stereo not shown): 5.63%. Next, `COc1ccc(C(CC(=O)O)NS(=O)(=O)c2ccc3c(c2)NC(=O)CO3)cc1` (stereo not shown): 6.4%; `CCCN(CCC)CCCNC(=O)C1c2cc(OC)c(OC)cc2C(=O)N(C)C1c1cccnc1` (stereo not shown): 21.1%; `O=C(CN1CCc2cc3c(cc2C1)OCCCO3)Nc1c(F)cccc1F`: 14.1%. On to `CCCCCOc1ccc(C2NC(=O)NC2=O)cc1` (stereo not shown), for which the “hERG current change (%, negative = inhibition) at 10uM” value was -7.42%.

Regarding `COc1ccc(C2=NCc3nnc(C)n3-c3ccc(Cl)cc32)cc1Cl`, the “hERG current change (%, negative = inhibition) at 10uM” value is listed as -10.9%. For the molecule `COc1ccccc1N1CCNCC1.Cl`, the “hERG current change (%, negative = inhibition) at 10uM” value is given as 22.5%. For the molecule `Cc1ccc(NC(=O)C2CCN(C(=O)c3ccco3)CC2)cc1`, the “hERG current change (%, negative = inhibition) at 10uM” value is on record as -14.2%.

Take `COc1ccc(C(=O)NCCS(=O)(=O)N2CCN(Cc3ccccc3)CC2)cc1`: the “hERG current change (%, negative = inhibition) at 10uM” value is reported as -16.7%.

As to `CN1C(=O)c2ccccc2Sc2ccc(C(=O)N3CCC4(CC3)OCCO4)cc21`, the “hERG current change (%, negative = inhibition) at 10uM” value was -16.9%. As for `CC(C)(C)C(=O)CN1CCN(S(=O)(=O)c2ccc(F)cc2)CC1`, the “hERG current change (%, negative = inhibition) at 10uM” value was 10.7%. Next, `COc1ccccc1-c1nc(C#N)c(N2CCC(Cc3ccccc3)CC2)o1`: 4.93%; `Cc1ccc(Nc2nc(N3CCOCC3)nc(N3CCOCC3)n2)cc1C.Cl`: -0.303%. For `CN(CCNC(=O)Cn1c(=O)sc2ccccc21)Cc1ccccc1` the value was -16.4%. For `Cc1cccc(NC(=O)CN2CCN(C(=O)c3cncn3-c3ccc(F)cc3)CC2)c1C` the value was -60.9%. On to `O=C(NC1CCCCC1)c1ccccc1NC(=O)C1CC(=O)N(c2ccccc2)C1` (stereo not shown), for which the “hERG current change (%, negative = inhibition) at 10uM” value is recorded as -76.8%. For `CCOC(=O)C1(Cc2ccc(OC)cc2)CCN(C(=O)CCN2CCCC2=O)CC1` the value was -3.22%.

As to `CCOc1ccc(CCNC(=O)C2(c3ccccc3)CC2)cc1OCC`, the “hERG current change (%, negative = inhibition) at 10uM” value is on record as 8.6%. For `Cc1cc(C)c(S(=O)(=O)N2CCC(C(=O)NCc3ccco3)CC2)c(C)c1` the value was -25.5%; for `CCCCC1(C)OC(=O)C(=Cc2ccc(N(CC)CC)cc2)C(=O)O1` (stereo not shown), 1.88%; for `Cc1cc(=O)n2nc(N3CCCC(C(=O)NCCC4=CCCCC4)C3)sc2n1` (stereo not shown), -19.8%. Next, `O=C(NCCc1ccccc1)c1ccc(=O)oc1`: 11.5%.

In the case of `Cc1cccc(N2CCN(C(=O)c3cccc(N4CCCC4=O)c3)C(C)C2)c1` (stereo not shown), the “hERG current change (%, negative = inhibition) at 10uM” value is listed as -3.19%. For `O=C1CCc2cc(S(=O)(=O)NC(Cc3ccccc3)C(=O)NCCC3=CCCCC3)ccc2N1` (stereo not shown) the value was -46.7%. Next, `COc1ccc(C(=O)O/N=C(\N)c2ccncc2)cc1OC`: -5.55%. For `CCN(CC)S(=O)(=O)c1cccc(NC(=O)CNc2cccc(S(=O)(=O)N3CCCC3)c2)c1` the value was 5.46%; for `CCOC(=O)C/C(N)=N/N(C)c1ncc(C(F)(F)F)cc1Cl`, 30.7%. Take `Cc1cc(C)cc(NC2=CC(=O)CC(c3ccco3)C2)c1` (stereo not shown): the “hERG current change (%, negative = inhibition) at 10uM” value is 17.3%. Next, `CN(C)CCCNc1oc(/C=C/c2ccccc2)nc1C#N`: -32.5%. For `CCOC(=O)C1CCN(C(=O)c2ccc(Cl)c(NC3=NC4CS(=O)(=O)CC4S3)c2)CC1` (stereo not shown) the value was 12.2%; for `CC(C)C[C@H](NC(=O)OC(C)(C)C)C(=O)N1CCC(C(=O)O)CC1`, 12.4%. For `Cc1cccc2sc(NC(=O)c3ccc(Cl)s3)nc12`, the “hERG current change (%, negative = inhibition) at 10uM” value is on record as 4.72%. Take `CC(C)N1CCC(N2CCN(Cc3cccnc3)CC2CCO)CC1` (stereo not shown): the “hERG current change (%, negative = inhibition) at 10uM” value was determined as 20.3%. Regarding `CNC(=O)CSc1nc2cc(S(=O)(=O)Nc3ccc(OC)cc3)ccc2o1`, the “hERG current change (%, negative = inhibition) at 10uM” value is listed as -8.2%. For the molecule `O=C(Nc1ccc2c(c1)OCCO2)C1CCN(C(=O)c2ccc(Cl)cc2)CC1`, the “hERG current change (%, negative = inhibition) at 10uM” value is -12.5%.

Take `O=C(CCc1nc2ccccc2c(=O)[nH]1)Nc1ccc(N2CCCCC2)cc1`: the “hERG current change (%, negative = inhibition) at 10uM” value was found to be 2.46%. As for `O=C(C1CC1)N1CCc2cc(Br)cc(S(=O)(=O)NCCN3CCOCC3)c21`, the “hERG current change (%, negative = inhibition) at 10uM” value is recorded as -4.77%.

For the molecule `COc1ccccc1C(=O)Nc1ccc2c(c1)nc(CCNC(C)=O)n2C`, the “hERG current change (%, negative = inhibition) at 10uM” value is 9.58%. Regarding `CCc1ccccc1NC(=O)CN1CCC(NC(=O)COC)CC1.Cl`, the “hERG current change (%, negative = inhibition) at 10uM” value is reported as 13.4%. With `CNc1nc(-c2ccc([N+](=O)[O-])cc2)cs1`, the “hERG current change (%, negative = inhibition) at 10uM” value stood at 2.64%. Next, `C[C@H](NC(=O)c1ccc2ccccc2c1)C(=O)N1CCC2(CC1)NCCc1[nH]cnc12`: 5.25%; `COc1ccc(/C=N/NC(=O)c2ccn[nH]2)cc1COc1ccc([N+](=O)[O-])c(C)c1`: 2.26%; `CCc1c(-c2ccccc2)nc(N)c(C#N)c1-c1cccs1`: 2.85%. For `COc1cc(/C=C/C(=O)OCC(=O)Nc2sc3c(c2C#N)CCC(C)C3)ccc1OCC#N` (stereo not shown) the value was 12.1%; for `Cc1cc(=O)[nH]c(SCC(=O)Nc2ccccc2C#N)c1C#N`, 3.53%. For `CCN(CC)CCN(Cc1cc2cc3c(cc2[nH]c1=O)OCCO3)C(=O)NC1CCCCC1` the value was -28.7%; for `COc1ccc(CNC(=O)C2(CC(=O)NC(C)(C)C)CCCC2)cc1`, 5.71%; for `COc1cc(CC(=O)OCC(=O)Nc2ccc(Cl)c(S(=O)(=O)N(C)C)c2)cc(OC)c1OC`, -28.6%.

Consider `Cc1ccc(C(=O)c2c[nH]c(C(=O)NCCCN3CCOCC3)c2)cc1`, for which the “hERG current change (%, negative = inhibition) at 10uM” value is listed as -30.5%. Next, `N#C/C(=C\c1ccc(-c2ccc(C(=O)O)cc2)o1)C(=O)Nc1ccc(F)cc1`: 25.6%. With `CC1(C)[C@@H](O)CC[C@]2(C)C3C(O)C=C4[C@H]5C[C@@](C)(CO)CC[C@]5(C)CC[C@]4(C)[C@]3(C)CC[C@@H]12` (stereo partly shown), the “hERG current change (%, negative = inhibition) at 10uM” value came to 17.7%. For `CN1CCc2c(sc(NC(=O)c3ccc([N+](=O)[O-])o3)c2C(N)=O)C1.Cl` the value was 4.98%; for `O=C(O)c1ccc(CNc2ccccc2C(=O)O)cc1`, 16%; for `CCc1ccc(CN(C)CCc2ccccn2)cc1`, -62.6%. For `COC(=O)C1=C(c2ccc(C(C)=O)cc2)C[C@@H]2CC[C@H]1N2C(=O)NCC1CC1` the value was -6.52%.

As for `COc1cccc(N2CCN(C(=S)NCc3ccco3)CC2)c1`, the “hERG current change (%, negative = inhibition) at 10uM” value is on record as -12.5%.

`CCOC(=O)N1CCN(CCC(=O)Nc2ccccc2OC)CC1`: the “hERG current change (%, negative = inhibition) at 10uM” value is given as -0.821%. Next, `CCN(CC)CCNC(=O)COc1ccc(Cl)cc1Cl`: -41.8%; `O=C(Nc1ccccc1[N+](=O)[O-])c1nc[nH]c1C(=O)NCCO`: 4.71%. Next, `CC1=CC(C)(C)NC(=S)N1c1ccc(C)cc1`: 18.8%.
